{"source": "ChEMBL document CHEMBL1157539", "about": "“Thousands of chemical starting points for antimalarial lead identification” (Nature, 2010)", "note": "In all, about 13,000 compounds were measured (“IFI”: median about 4, highest 2% from about 17 on). This is one part of the list."}
{"assay": "GSK_TCMDC: Inhibition Frequency Index (IFI). The number of non-kinase HTS assays where a compound showed > 50 % inhibition, expressed as a percentage of the number of such assays in which the compound was tested (-0 is zero)", "format": "functional", "units": {"IFI": "%"}}
{"smiles": "Cc1nc(N)nc(N)c1OCCCCOc1ccccc1", "IFI": 2.9}
{"smiles": "Cc1cc(Nc2ccnc(-c3ccc(Cl)cc3)n2)ccn1", "IFI": 2.19}
{"smiles": "Fc1cc(Cl)ccc1Nc1ccnc2cc(-c3scnc3CNCCN3CCOCC3)ccc12", "IFI": 2.27}
{"smiles": "COc1ccc2nc(C)cc(N/N=C/c3ccc([N+](=O)[O-])o3)c2c1", "IFI": 4.23}
{"smiles": "Cc1cc(=NN=CC=Cc2ccccc2)c2cc(F)ccc2[nH]1", "IFI": 0.75}
{"smiles": "CCCCCC(C)c1cc(O)c2c(c1)OC(C)(C)C=C2C1=CCN(Cc2ccccc2)CC1", "note": "(stereo unspecified)", "IFI": 10.9}
{"smiles": "O=C(Nc1ccc(F)cc1F)NC1CCN(c2ccnc3cc(Cl)ccc23)C1", "note": "(stereo unspecified)", "IFI": 3.08}
{"smiles": "c1cnc2ccc(NCc3ccc(-c4ccc(CNC5CCCC5)cc4)cc3)cc2c1", "IFI": 8.33}
{"smiles": "CN(C)Cc1cccc(-c2ccc(Nc3nccc(NCC(O)c4ccccc4)n3)cc2)c1", "note": "(stereo unspecified)", "IFI": 17.2}
{"smiles": "Cc1c(CCNC(=O)CCCN2CC(C)CC(C)C2)c2ccccc2n1C", "note": "(stereo unspecified)", "IFI": 0.75}
{"smiles": "O=c1cc(NCCCNCc2cccc(SC(F)(F)F)c2)[nH]c2ccccc12", "IFI": 2.17}
{"smiles": "CCN(CC)/C(=N/C(=N)NCc1cccc(Cl)c1)NCCCCCCN/C(=N\\C(=N)NCc1cccc(Cl)c1)N(CC)CC", "IFI": 13.8}
{"smiles": "Cc1cc(NCCC(=O)Nc2ccccc2)nc(NCCc2ccc(F)cc2)n1", "IFI": 4.55}
{"smiles": "CC(C)(CNCc1ccc(OC(F)(F)F)cc1)c1nc(-c2ccc(Cl)c(O)c2)c(-c2ccncc2)[nH]1", "IFI": 9.42}
{"smiles": "CN(C)CCOc1ccc(-c2cc(-c3ccncc3)c(-c3ccc(Cl)c(O)c3)[nH]2)cc1", "IFI": 2.86}
{"smiles": "O=C(NCC1CCC(C(=O)NCc2cccc(C(F)(F)F)c2)CC1)c1ccc(O)c(-c2ccc(Cl)c(Cl)c2)c1", "note": "(stereo unspecified)", "IFI": 1.48}
{"smiles": "O=C(NCCCN1CCCCC1)c1ccc(Nc2nccc(Nc3ccc(Oc4ccccc4)cc3)n2)cc1", "IFI": 7.3}
{"smiles": "FC(F)(F)c1ccc2[nH]c(-c3cccc(-c4ccc(CNCc5ccccc5)cc4)c3)nc2c1", "IFI": 13.5}
{"smiles": "Cn1cc(C2CCN(CCCCNC(=O)c3sc(-c4ccc(C(F)(F)F)cc4)nc3CO)CC2)c2ccccc21", "IFI": 7.96}
{"smiles": "Oc1c(CN2CCCC(C(F)(F)F)C2)cc(Cl)c2ccccc12", "note": "(stereo unspecified)", "IFI": 6.38}
{"smiles": "Nc1nc(N)c2c(ccc3c2ccn3Cc2cc3c(cc2Cl)OCO3)n1", "IFI": 5.38}
{"smiles": "Cc1cc(N[C@@H](Cc2ccccc2)C(=O)NCCc2ccccc2)nc(NCCOc2ccccc2)n1", "IFI": 7.5}
{"smiles": "COc1ccc(Nc2nc(N/N=C/c3ccc(O)cc3)nc(Nc3ccc([N+](=O)[O-])cc3)n2)cc1", "IFI": 5.52}
{"smiles": "CC(=O)Nc1ccc(CN(Cc2ccc(C)cc2)Cc2cccc(Oc3ccccc3)c2)cc1", "IFI": 0.71}
{"smiles": "CC(C)c1ccc(NC(=O)c2ccc(CN3CCCN(CC4CCCCC4)CC3)cc2)cc1", "IFI": 15}
{"smiles": "COCCN1CCC(NCC(C)(C)c2nc(-c3ccc(Cl)c(O)c3)c(-c3ccncc3)[nH]2)CC1", "IFI": 0}
{"smiles": "Cc1cccc2nc(-c3cccc(-c4ccc(NC(=O)c5c[nH]cn5)cc4)c3)[nH]c12", "IFI": 1.87}
{"smiles": "COc1ccc2nccc(N(C)CC3(O)CCN(CCc4ccc5c(c4)NC(=O)CS5)CC3)c2n1", "IFI": 5.67}
{"smiles": "O=C(Cc1cn(-c2ccccc2)nc1-c1ccc(Cl)cc1)Nc1nccs1", "IFI": 2.56}
{"smiles": "Cc1cccc2nc(-c3ccc(-c4cccc(CN5CCN(CC6CCCN(C)C6)CC5)c4)s3)[nH]c12", "note": "(stereo unspecified)", "IFI": 6.94}
{"smiles": "CCOc1ccc2[nH]c(C)cc(=NN=Cc3cccc(C)n3)c2c1", "IFI": 1.46}
{"smiles": "Cc1ccc(Nc2nc(N/N=C/c3cccc([N+](=O)[O-])c3)nc(Nc3ccccc3)n2)c(C)c1", "IFI": 2.4}
{"smiles": "N#Cc1ccc2c(c1)CCN(CCC1CCC(NC(=O)/C=C/c3cnc4ccccc4c3)CC1)CC2", "note": "(stereo unspecified)", "IFI": 6.57}
{"smiles": "Cc1cccc(-c2cc3cc(Nc4ccnc5cc(-c6nccs6)ccc45)ccc3[nH]2)c1", "IFI": 3.03}
{"smiles": "COc1cc2c(cc1N(C(C)C)S(=O)(=O)c1sc3ccc(Cl)cc3c1C)CCNCC2", "IFI": 15.8}
{"smiles": "CCCc1cc(Cc2cnc(N)nc2N)cc(CC)c1O", "IFI": -0}
{"smiles": "COc1cc2nc(Nc3ccc4c(c3)OCCO4)nc(N)c2cc1OC", "IFI": 1.67}
{"smiles": "COC(=O)c1cccc(CNCc2ccc(-c3ccc(-c4nc5cc(C(F)(F)F)ccc5[nH]4)cc3)cc2)c1", "IFI": 9.62}
{"smiles": "COc1ccc(CNC2CCN(C)CC2)cc1-c1ccc(S(=O)(=O)NCc2ccccc2)s1", "IFI": 12.8}
{"smiles": "O=C(NCc1cccc(F)c1)Nc1cccc(-c2ccc(-c3nc4cc(C(F)(F)F)ccc4[nH]3)cc2)c1", "IFI": 6.93}
{"smiles": "COc1cc(CNC[C@@H](O)[C@H](Cc2ccccc2)NC(=O)c2cc(OC(C)C)cc(N3CCCS3(=O)=O)c2)cc(OC)c1", "IFI": 2.16}
{"smiles": "CCOC(=O)c1sc(C(C)Nc2ccccc2)nc1-c1ccccc1", "note": "(stereo unspecified)", "IFI": 3.45}
{"smiles": "N#Cc1ccc(-c2nc(CO)c(C(=O)NCCCCN3CCC(c4ccc5c(c4OCC(N)=O)CCCC5)CC3)s2)cc1", "IFI": -0}
{"smiles": "O=S(=O)(Nc1ccc(-c2ccc(CN3CCCC3)cc2)cc1)c1cccc2cccnc12", "IFI": 3.33}
{"smiles": "CCC(C)c1ccc(O)c(NC(=O)c2cncc(Br)c2)c1", "note": "(stereo unspecified)", "IFI": 2.05}
{"smiles": "O=C(/C=C/c1ccc(C(F)(F)F)cc1)NCCCCCN1CCCN(C(=O)Nc2ccc(Cl)c(C(F)(F)F)c2)CC1", "IFI": 18.8}
{"smiles": "COc1ccc2c(=NN=Cc3ccccc3F)cc(C)[nH]c2c1", "IFI": 1.48}
{"smiles": "O=C(/C=C/c1ccc(Cl)c(Cl)c1)NCCCCCN1CCCN(C(=O)Nc2ccc(Cl)cc2)CC1", "IFI": 4.03}
{"smiles": "COc1cccc(CC(=O)N2CCC(n3c(C)nc4ccc(F)cc43)CC2)c1", "IFI": -0}
{"smiles": "CCC(CC)N1CCN(CC(=O)Nc2ccc([N+](=O)[O-])cc2C(=O)Nc2cccc(OC)c2)CC1", "IFI": 1.43}
{"smiles": "O=C(NCc1ccc(Cl)c(Cl)c1)c1ccc(C2CCN(Cc3ccc4[nH]cnc4c3)CC2)cc1", "IFI": 2}
{"smiles": "COc1cncc(/C=C/c2cncc(C(=O)NCCc3ccc(Cl)cc3Cl)c2)c1", "IFI": 1.43}
{"smiles": "COc1ccc(CNCc2ccccc2)cc1-c1ccc(S(=O)(=O)NCCN2CCCC2)c(C)c1", "IFI": 10.7}
{"smiles": "CC(C)(C)c1ccc(NC(=O)c2cccc(CN3CCCN(CC4CCCCC4)CC3)c2)cc1", "IFI": 9.35}
{"smiles": "O=C(Nc1cccc(CN2CCN(Cc3ccc(O)cc3)CC2)c1)c1cc2ccccc2o1", "IFI": 0}
{"smiles": "O=C(Nc1cccc(-c2csc(-c3nc4ccccc4[nH]3)c2)c1)c1cccnc1", "IFI": 1.87}
{"smiles": "COc1ccc(-c2cccc(NC(=O)c3cccc(Cl)c3)c2)cc1CNC(C)C", "IFI": 5.33}
{"smiles": "N#CN1CC[C@@H](OC(=O)N[C@@H]2C[C@H]2c2ccccc2)C1", "IFI": -0}
{"smiles": "Cc1ccc(-n2c(Cc3cccc4ccccc34)nnc2SCCC#N)c(C)c1", "IFI": 1.53}
{"smiles": "O=C(/C=C/c1ccc(Cl)c(Cl)c1)NCCCCCN1CCC(c2cn[nH]c2-c2ccccc2)CC1", "IFI": 4.41}
{"smiles": "Nc1nc(N)c2c(Sc3ccccc3)cccc2n1", "IFI": 4.62}
{"smiles": "COc1cccc(NC(=O)Nc2ccc(C)c(-c3ccc(C(=O)Nc4ccncc4)cc3)c2)c1", "IFI": 26.8}
{"smiles": "O=C(Nc1cccc(-c2nn3ncccc3c2-c2ccnc(Nc3cccc(-c4cnco4)c3)n2)c1)c1c(F)cccc1F", "IFI": 5.04}
{"smiles": "CCCc1ccc(S(=O)(=O)NC2CCN(c3ccnc(Nc4ccc(F)cc4)n3)C2)cc1", "note": "(stereo unspecified)", "IFI": 16.2}
{"smiles": "COc1ccc2c(c1)Nc1ccc(Cl)cc1C2N", "note": "(stereo unspecified)", "IFI": 7.81}
{"smiles": "NC(=O)Nc1ccc2c(Nc3ccc(OCc4ccccc4)cc3)ncnc2c1", "IFI": -0}
{"smiles": "CN1CCN(c2ccnc3ccc(NC(=O)Nc4cccc5c(Br)cccc45)cc23)CC1", "IFI": 5.88}
{"smiles": "OCC1CCN(Cc2ccc(-c3ccc(-c4nc5ccccc5[nH]4)cc3)cc2)CC1", "IFI": 2.82}
{"smiles": "CC(C(=O)OCCOCn1cnc2c(=O)[nH]c(N)nc21)N(C)C(=O)OC(C)(C)C", "note": "(stereo unspecified)", "IFI": 0}
{"smiles": "CC(C)(C)c1ccc(CN2CCC(NC(=O)c3cc(-c4cccc(C(F)(F)F)c4)cs3)C2)cc1", "note": "(stereo unspecified)", "IFI": 7.14}
{"smiles": "Cn1c(Nc2nnc(C3CC3)s2)nc2cc(Nc3ccnc(Nc4cccc(CS(C)(=O)=O)c4)n3)ccc21", "IFI": 2.83}
{"smiles": "Cc1ccc(NC(=O)Cc2noc(CC3CCCN3C(=O)N[C@@H](C)c3ccccc3)n2)cc1", "note": "(stereo partly specified)", "IFI": -0}
{"smiles": "Nc1c(Cl)cc(C(O)CNCCCCCCOCCc2ccc(O)cc2)cc1Cl", "note": "(stereo unspecified)", "IFI": 5.08}
{"smiles": "O=C(NC(Nc1ccc([N+](=O)[O-])cc1)C(Cl)(Cl)Cl)c1cccc(Cl)c1", "note": "(stereo unspecified)", "IFI": 13.9}
{"smiles": "Cc1ccc(C(=O)Nc2cccc(CN3CCCN(Cc4ccc(O)cc4)CC3)c2)s1", "IFI": 0.69}
{"smiles": "N=C(N)NC(=O)Nc1ccc(Cl)c(Cl)c1", "IFI": 1.52}
{"smiles": "Cc1cccc2nc(-c3cccc(-c4cccc(NC(=O)Nc5ccccc5)c4)c3)[nH]c12", "IFI": 2.02}
{"smiles": "Nc1nc(N)c2c(ccc3ccccc32)n1", "IFI": 4.26}
{"smiles": "CC(=O)Nc1ccc(COc2ccc(Nc3ccnc4cc(-c5ccccn5)ccc34)cc2)cc1", "IFI": 9.03}
{"smiles": "NC(=O)c1cccc(C(=O)Nc2cccc(-c3cccc(-c4nc5ccccc5[nH]4)c3)c2)c1", "IFI": 3.81}
{"smiles": "COc1ccc(C(=O)Nc2ccc(-c3nc4cc(C)ccc4[nH]3)cc2)cc1OC", "IFI": 5.93}
{"smiles": "CCNc1cc(C(=O)N[C@@H](Cc2ccccc2)[C@H](O)CNCC(C)C)cc(N2CCCC2=O)c1", "IFI": -0}
{"smiles": "COc1cccc(-c2ccc3c(-c4cccc(S(C)(=O)=O)c4)cnc(N)c3c2)c1", "IFI": 11.5}
{"smiles": "Cc1cc(N[C@@H](CC(C)C)C(=O)Nc2ccccc2)nc(NCc2ccccc2C)n1", "IFI": 9.52}
{"smiles": "CCCCCCCN1CC[C@@H](CCCc2ccnc3ccc(OCCN4CCOCC4)cc23)[C@@H](CC)C1", "IFI": 8.76}
{"smiles": "CCCCCc1cnc2nc(N)nc(N)c2c1C", "IFI": 1.42}
{"smiles": "O=C(N[C@@H](Cc1ccccc1)[C@H](O)CNC1CCc2ccccc2C1)c1cc(C2CCCC2)cc(N2CCCC2=O)c1", "note": "(stereo partly specified)", "IFI": 10.3}
{"smiles": "CC(=O)Nc1cc(C(=O)Nc2cccc(-c3cccc(-c4nc5cccc(C)c5[nH]4)c3)c2)ccc1C", "IFI": 5.88}
{"smiles": "O=S(=O)(Nc1cc2c(cc1OCc1ccccc1)CCN(C1CCC1)CC2)c1ccc(-c2ccc(Cl)cc2)cc1", "IFI": 5.84}
{"smiles": "Cc1nc2nc(N)nc(N)c2c(C)c1Cc1cccc(C#N)c1", "IFI": 0.72}
{"smiles": "COc1ccc(OCCCON2C(=N)N=C(N)NC2(C)C)cc1", "IFI": 2.88}
